Results as given in patent US20190330372A1 (Novartis, published 2019).

Legend:
NOV1401 (IgG) = target: T1, NOV1401 (IgG); assay: solution equilibrium titration (SET), panel 'NOV1401': soluble antigen titrated against a constant amount of IgG (20 pM, Table 9); free antibody captured on plate-coated human plasma FXIa, ECL read-out; axis labelled 'hFXI pM', the example names FXIa
T1 construct: Germlined version of NOV1090, human IgG1/lambda with D265A and P329A in the Fc
Protocol: (§1) Experiments were carried out in polypropylene microtiter plates and with PBS (GIBCO 14190, pH 7.0-7.2) containing 0.5% BSA and 0.02% Tween20 as assay buffer. Serial dilutions of unlabeled FXIa antigen were prepared, starting with a concentration at least 10 times higher than the expected KD. Wells without antigen were used to determine Bₘₐₓ values; wells containing only assay buffer were used to determine background. After addition of an appropriate amount of binder (antibody concentration similar to or below the expected KD, 60 μL final volume), the mixture was incubated over night at RT.
(§2) MSD plates were coated with 1 μg/mL human plasma derived FXIa (30 μL per well). After washing the plate with PBS containing 0.05% Tween 20, the equilibrated samples were transferred to the plates and incubated for 20 min. Following incubation, 30 μL per well of the MSD-Sulfo-tag labeled detection antibody (anti-Flag M2 (Sigma) 1:2,000) was added to the washed MSD plate and incubated for 30 min at RT on an Eppendorf shaker (700 rpm).
(§3) The SET method described in Example 2 was used to determine the KD for AM4 (IgG), and compared to NOV1401, the germlined version of its parental antibody NOV1090.

AM4 (IgG) = target: T2, AM4 (IgG); assay: solution equilibrium titration (SET), panel 'AM4': soluble antigen titrated against a constant amount of IgG (5 pM, Table 9); free antibody captured on plate-coated human plasma FXIa, ECL read-out; axis labelled 'hFXI pM', the example names FXIa
T2 construct: Germlined version of AM3, with two amino acid changes at the N-terminus of the light chain
Protocol: as §1, §2, §3

T1 sequence (VH, as listed by the source, chain 1 of 2): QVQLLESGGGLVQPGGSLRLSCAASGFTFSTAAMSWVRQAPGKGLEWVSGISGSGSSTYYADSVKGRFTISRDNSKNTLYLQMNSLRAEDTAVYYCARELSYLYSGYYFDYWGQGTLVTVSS
T1 sequence (VL, as listed by the source, chain 2 of 2): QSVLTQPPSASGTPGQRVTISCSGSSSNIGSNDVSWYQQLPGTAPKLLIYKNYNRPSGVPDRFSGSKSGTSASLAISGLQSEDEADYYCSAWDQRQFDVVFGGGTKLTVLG
T2 sequence (heavy, as listed by the source, chain 1 of 2): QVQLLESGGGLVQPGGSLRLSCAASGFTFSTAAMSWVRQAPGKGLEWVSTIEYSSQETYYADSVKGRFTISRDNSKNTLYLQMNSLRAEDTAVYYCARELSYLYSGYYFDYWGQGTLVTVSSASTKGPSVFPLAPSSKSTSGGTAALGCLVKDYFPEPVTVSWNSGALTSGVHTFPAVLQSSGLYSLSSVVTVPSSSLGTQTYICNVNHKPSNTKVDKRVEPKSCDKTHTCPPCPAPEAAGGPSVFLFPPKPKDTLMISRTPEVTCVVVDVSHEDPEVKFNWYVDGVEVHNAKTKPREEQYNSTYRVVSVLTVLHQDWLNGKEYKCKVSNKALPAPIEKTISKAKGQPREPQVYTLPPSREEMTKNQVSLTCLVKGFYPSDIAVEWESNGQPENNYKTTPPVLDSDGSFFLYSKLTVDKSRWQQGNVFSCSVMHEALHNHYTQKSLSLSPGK
T2 sequence (light, as listed by the source, chain 2 of 2): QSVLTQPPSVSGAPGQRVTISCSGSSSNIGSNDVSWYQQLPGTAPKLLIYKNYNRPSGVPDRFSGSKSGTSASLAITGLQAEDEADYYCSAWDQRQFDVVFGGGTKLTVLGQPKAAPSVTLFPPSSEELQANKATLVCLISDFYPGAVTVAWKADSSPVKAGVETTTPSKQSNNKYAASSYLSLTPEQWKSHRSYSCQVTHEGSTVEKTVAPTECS

- IC50 (read off the curve) (NOV1401 (IgG)): ~10 pM
- IC50 (read off the curve) (AM4 (IgG)): ~3 pM
B1: human plasma derived FXIa (enzyme)
chain: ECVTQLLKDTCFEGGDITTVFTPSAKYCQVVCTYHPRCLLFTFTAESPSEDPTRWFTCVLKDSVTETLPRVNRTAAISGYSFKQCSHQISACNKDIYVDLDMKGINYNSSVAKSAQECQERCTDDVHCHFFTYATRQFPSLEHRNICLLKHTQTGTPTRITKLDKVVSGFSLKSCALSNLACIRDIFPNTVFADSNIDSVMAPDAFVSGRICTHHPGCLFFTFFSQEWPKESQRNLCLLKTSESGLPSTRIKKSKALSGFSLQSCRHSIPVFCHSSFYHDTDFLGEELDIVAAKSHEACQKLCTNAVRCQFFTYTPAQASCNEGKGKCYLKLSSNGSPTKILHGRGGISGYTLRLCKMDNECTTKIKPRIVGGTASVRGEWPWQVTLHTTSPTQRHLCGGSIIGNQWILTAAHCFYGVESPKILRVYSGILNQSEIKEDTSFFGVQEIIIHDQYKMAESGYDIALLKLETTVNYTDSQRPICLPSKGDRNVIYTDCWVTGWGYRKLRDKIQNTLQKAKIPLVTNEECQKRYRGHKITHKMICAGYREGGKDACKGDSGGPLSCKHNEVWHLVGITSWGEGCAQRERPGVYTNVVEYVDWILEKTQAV
notes: The light chain is the catalytic domain, […]; also called hFXIa; human FXIa
